Some entries of the source have several records that differ or are many. Only these are listed. An entry can have further records. Values given together are repeated measurements in other runs, samples, wells, individuals or studies. Counts like (3×) count equal records among those shown.
System: 855422-203-R-J1-PDC spheroids with HUVEC/MSC, viability
Assay: Anticancer human tumor 855422-203-R-J1-PDC patient-derived bladder carcinoma cell line growth inhibition [PI3K]
Conditions: stronger effect = lower value
Excerpt: Combinatorial screen of targeted agents with the PI3K inhibitors inavolisib, alpelisib, duvelisib, and copanlisib in multi-cell type tumor spheroids
A high-throughput screen of multi-cell type tumor spheroids was designed to identify active combinations of targeted small molecules and PI3K pathway inhibitors. Complex spheroids include a stromal component modeled by human endothelial cells (HUVEC) and fibroblasts modeled by human mesenchymal stem cells (MSCs). The concentration ranges selected for each drug and investigational agent were based upon clinically achievable concentrations if the clinical Cmax of the agent was known.
Compounds. The drugs and investigational agents: inavolisib (NSC800729), alpelisib (NSC765974), duvelisib (NSC772469), copanlisib (NSC816437), ipatasertib (NSC767898), afuresertib (NSC778305), talazoparib (NSC767125), sapanisertib (NSC764658), selumetinib (NSC741078), tovorafenib (DAY101, NSC766906), vemurafenib (NSC761431), ravoxertinib (NSC781343), sotorasib (NSC818433), MRTX1133 (NSC 836407), abemaciclib (NSC 768073), palbociclib (NSC758247), venetoclax (NSC 766270), SY5609 (NSC837396), enzalutamide (NSC755605), and darolutamide (NSC825331), were obtained from the National Cancer Institute (NCI) Developmental Therapeutics Program Chemical Repository. The FDA-approved anticancer drug set is available from the NCI Developmental Therapeutics Program. […] The stock solutions were prepared in dimethyl sulfoxide (DMSO, Sigma-Aldrich, St. Louis, MO, cat. D2650) at 800-fold the tested concentration and stored at -70 degrees C prior to their use. All drugs and investigational agents were tested over a range starting from a high concentration at or near the clinical Cmax and decreasing in half-log increments. If the clinical Cmax for an agent had not been determined, the highest concentration tested was 10 microM.
Cell Culture. All cells were maintained in an incubator at 37 degrees C and 5% CO2 with 95% humidity. The PDC lines were cultured according to standard operating procedures established by the NCI PDMR (https://pdmr.cancer.gov/sops/default.htm). All PDCs were thawed and cultured in Matrigel-coated flasks prepared with a working solution of 1X Ham's F-12 nutrient mix, without supplementation (Invitrogen, Waltham, MA, cat. 11765054), 100 U/mL penicillin-streptomycin (Invitrogen, cat. 15140122), and 2.5% Matrigel (Corning Inc., Corning, NY, cat. 354248) for the first three passages. The 354836-022-R-J1-PDC, 475296-252-R-J1-PDC, and 997726-040-R-J2-PDC lines were cultured in 6A media, which includes advanced DMEM/F-12 (Thermo Fisher Scientific, cat. 12634028), 10 mM HEPES (Thermo Fisher Scientific, cat. 15630080), 1X GlutaMAX supplement (Thermo Fisher Scientific, cat. 35050061), 0.1 mg/mL primocin (InvivoGen, San Diego, CA, cat. ant-pm-2), 10% defined fetal bovine serum, heat inactivated (HyClone Laboratories Inc., Logan, UT, cat. SH30070.03HI), 50% L-WRN conditioned media (ATCC, cat. CRL-3276), 1.25 mM N-Acetyl-L-cysteine (Sigma-Aldrich, cat. A9165), 10 mM nicotinamide (Sigma-Aldrich, cat. N0636), 1X B-27 supplement (Thermo Fisher Scientific, cat. 17504044), 1X N-2 supplement (Thermo Fisher Scientific, cat. 17502048), and 10 microM Y-27632 dihydrochloride (Tocris Bioscience, Bristol, United Kingdom, cat. 1254). The 624824-186-R-J2-PDC line was cultured in 6C/Colon 1B media, which includes all 6A media components plus 50 ng/mL human EGF recombinant protein (Thermo Fisher Scientific, cat. PHG0311). […]
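Also: agents incubated with spheroids for one week before read-out; 100% = DMSO vehicle-treated control wells.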

With `CCN1CCN(Cc2ccc(Nc3ncc(F)c(-c4cc(F)c5nc(C)n(C(C)C)c5c4)n3)nc2)CC1` the viability, T/C (compound alone 0.01 µM) was 98.3, 78.5, 105, 82.9%.

With `C[C@@H](NC(=O)c1ncnc(N)c1Cl)c1ncc(C(=O)Nc2cc(C(F)(F)F)c(Cl)cn2)s1` the viability, T/C (compound alone 1 µM) was 96.3, 82.7, 110, 97.2%.

With `Cc1nc(NC(=O)N2CCCC2C(N)=O)sc1-c1ccnc(C(C)(C)C(F)(F)F)c1` (stereo unspecified) the viability, T/C (compound alone 0.1 µM) was 90.5, 97.9, 101, 88.5, 111, 68.2, 107, 106% and the viability, T/C (compound alone 0.316 µM) was 100 (2×), 87.3, 97.9, 76.2, 104, 74.2, 98.3%.

For `CC1(C)CCC(CN2CCN(c3ccc(C(=O)NS(=O)(=O)c4ccc(NCC5CCOCC5)c([N+](=O)[O-])c4)c(Oc4cnc5[nH]ccc5c4)c3)CC2)=C(c2ccc(Cl)cc2)C1`, the viability, T/C (compound alone 3.16 µM) was 72, 61.5, 78, 96.6%.

In the case of `CCCS(=O)(=O)Nc1ccc(F)c(C(=O)c2c[nH]c3ncc(-c4ccc(Cl)cc4)cc23)c1F`, the viability, T/C (compound alone 0.0316 µM) is reported as 84.8, 111, 116, 110%.

— PubChem BioAssay AID1963967 (Molecular Pharmacology Branch, DTP, NCI, 2024)
